Laboratory results: PubChem BioAssay AID1460 (National Center for Advancing Translational Sciences (NCATS), 2008)
The whole screen tested about 270,000 compounds, of which about 5,800 (2.1%) were called active. The inconclusive results got no clear call from the source; some entries with a clear call stand among them for comparison. Calls follow the shape of the dose curve; as a rule, active = well fitted inhibition curve with a large enough effect; inconclusive = small, poorly fitted or top-dose-only effect; inactive = flat fitted curve, though single readings scatter. Potencies of inconclusive entries are doubtful fits and often do not repeat.

Target: Microtubule-associated protein tau (Homo sapiens) (UniProt P10636)
Experiment: qHTS for Inhibitors of Tau Fibril Formation, Thioflavin T Binding; also: nearly all actives have a fitted effect of over 55% in size
Details: recombinant tau K18 P301L (four-repeat tau fragment), heparin-induced fibrillization, ThT fluorescence; series mostly up to 57.4 µM
Method in brief: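 Aggregation was driven by heparin (20 uM final) acting on recombinant tau […] bearing P301L in 100 mM sodium acetate pH 7; fibrils were detected with Thioflavin T.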
Potency is read from the fitted curve at half-maximal effect; tags tell the direction and shape of the fitted curve.

Chain of UniProt P10636 (P10636 whole entry, looked up): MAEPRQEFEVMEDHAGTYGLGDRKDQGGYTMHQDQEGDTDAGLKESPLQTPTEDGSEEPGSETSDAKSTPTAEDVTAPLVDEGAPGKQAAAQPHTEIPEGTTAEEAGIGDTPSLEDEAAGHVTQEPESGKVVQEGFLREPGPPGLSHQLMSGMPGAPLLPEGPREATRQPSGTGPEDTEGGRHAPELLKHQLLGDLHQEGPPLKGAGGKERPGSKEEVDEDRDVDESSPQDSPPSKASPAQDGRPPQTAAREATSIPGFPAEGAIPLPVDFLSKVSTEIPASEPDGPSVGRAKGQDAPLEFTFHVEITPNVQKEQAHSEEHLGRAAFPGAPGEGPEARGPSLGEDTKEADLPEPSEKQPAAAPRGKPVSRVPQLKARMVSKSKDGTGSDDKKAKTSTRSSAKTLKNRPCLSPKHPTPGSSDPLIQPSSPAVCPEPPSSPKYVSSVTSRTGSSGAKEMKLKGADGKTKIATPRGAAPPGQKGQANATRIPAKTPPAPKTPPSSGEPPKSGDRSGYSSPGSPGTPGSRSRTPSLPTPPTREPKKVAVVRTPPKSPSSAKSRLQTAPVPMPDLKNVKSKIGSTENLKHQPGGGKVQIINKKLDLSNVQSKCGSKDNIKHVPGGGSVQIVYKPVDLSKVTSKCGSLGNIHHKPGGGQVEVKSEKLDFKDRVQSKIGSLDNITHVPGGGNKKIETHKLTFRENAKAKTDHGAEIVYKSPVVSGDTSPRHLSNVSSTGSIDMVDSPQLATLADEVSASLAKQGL

| Compound | Potency |
| --- | --- |
| C/C(=N\NC(=O)c1ccc(CN2CCOCC2)cc1)c1cccc([N+](=O)[O-])c1 | inconclusive: 15.8 µM [inhibitor, partial curve, poor fit] |
| CC(C)(C)C(=O)Oc1cc(N)n(S(=O)(=O)c2ccc(F)cc2)n1 | inconclusive: 17.8 µM [inhibitor, partial curve] |
| COc1ccc(-c2ccc(=O)n(CC(=O)Nc3ccc(C(=O)NC4CC4)cc3)n2)cc1OC | inactive |
| O=S(=O)(Nc1c(S(=O)(=O)c2ccccc2)c2nc3ccccc3nc2n1C1CCCCC1)c1ccccc1 | inconclusive: 39.8 µM [inhibitor, single point] |
| O=c1[nH]ncc(N/N=C\c2ccc(O)cc2O)c1Cl | inconclusive: 15.8 µM [inhibitor, partial curve] |
| COc1ccccc1CNC(=O)C1CCC(CNS(=O)(=O)c2ccc3c(c2)CCCC(=O)N3)CC1 (stereo not given) | inactive |
| Cc1cccc(NC(=S)NN2CCN(C)CC2)c1C | inactive |
| Oc1c(C=Nc2cccc3cccnc23)sc2ccccc12 | inconclusive: 7.08 µM [inhibitor, partial curve] |
| CCOC(=O)/C(=C/c1ccc(N2CCC(c3ccccc3)=N2)cc1)C(C)=O | inconclusive: 5.62 µM [inhibitor, partial curve] |
| O=C(/C=C/c1ccc(O)cc1)c1cccs1 | inconclusive: 17.8 µM [inhibitor, partial curve] |
| COc1ccc(/C=N/Nc2ccccn2)cc1O | inconclusive: 14.1 µM [inhibitor, partial curve] |
| Cc1ccc(C)c(NC(=O)c2cnn(-c3cccc(F)c3)c2C2CCN(C(=O)OC(C)(C)C)CC2)c1 | inactive |
| COc1cccc(NC(=O)c2ccccc2-c2nc(-c3cccc(C)c3)no2)c1 | inactive |
| CN1C=C/C(=C\c2cc[n+](C)c3ccccc23)c2ccccc21 | active: 14.1 µM |
| CCOC(=O)CSc1ncnc2c1nnn2-c1ccc(F)cc1 | inconclusive: 3.98 µM [inhibitor, full curve] |
| O=C(Cn1cc(SCc2c(F)cccc2Cl)c2ccccc21)N1CCCCCC1 | inactive |
| CCOC(=O)c1scc(-c2ccccc2)c1S(=O)(=O)Nc1cc(OC)cc(OC)c1 | inactive |
| CCCCn1c2ccccc2c2nnc(SCC(=O)NC3=NN=C(c4ccccc4)CS3)nc21 | inconclusive: 28.2 µM [inhibitor, partial curve] |
| Cc1ccc(/C=C2/NC(=O)N(Cc3ccc(Br)cc3)C2=O)o1 | inconclusive: 22.4 µM [inhibitor, single point] |
| O=C(NCc1ccccc1)[C@H]1C[C@@H]1[C@H](NP(=O)(c1ccccc1)c1ccccc1)c1ccccc1 | inconclusive: 39.8 µM [inhibitor, single point] |
| CSCCC(NC(=O)c1cc([N+](=O)[O-])ccc1Cl)C(=O)O (stereo not given) | inactive |
| CC1=NN(c2cccc(Cl)c2)C(=O)C1 | inconclusive: 31.6 µM [inhibitor, partial curve, poor fit] |
| Cc1ccc2c(c1)-c1cc(C)nn1C(c1sccc1C)N2 (stereo not given) | inconclusive: 28.2 µM [inhibitor, partial curve, poor fit] |
| CCN(C(=O)c1cc2c(s1)-c1c(C)cccc1OC2)c1ccccc1F | inconclusive: 28.2 µM [inhibitor, partial curve] |

| Compound | Potency |
| --- | --- |
| CCc1cc(=O)oc2c3c(c(Cl)cc12)OCN(Cc1cccc(OC)c1)C3 | inactive |
| COc1ccc(N2CCN(C(=O)Cc3coc4cc(C)ccc34)CC2)cc1 | inconclusive: 12.6 µM [inhibitor, partial curve] |
| O=C(Oc1cccc(N2C(=O)C3C4c5ccccc5C(c5ccccc54)C3C2=O)c1)c1ccco1 (stereo not given) | inconclusive: 44.7 µM [inhibitor, single point] |
| CCOC(=O)C1=CN(c2cccc(F)c2)C=C(C(=O)OCC)C1c1cc(OC)c(O)c([N+](=O)[O-])c1 | active: 12.6 µM |
| Nc1cccnc1Sc1ccc(Cl)cc1 | inactive |
| Clc1ccc(C2CC(c3ccccc3)Nc3ncnn32)cc1 (stereo not given) | inactive |
| O=C(Nc1ccc2nn(-c3ccccc3)nc2c1)c1cc2ccccc2o1 | inconclusive: 1.12 µM [inhibitor, full curve, poor fit] |
| Cc1cc2ccccc2n1CCNC(=O)c1cccc(Br)c1 | inconclusive: 7.94 µM [inhibitor, partial curve] |
| CN(CC(=O)Nc1ccc(N2CCOCC2)cc1)CC(=O)Nc1ccc(N2CCOCC2)cc1 | inconclusive: 15.8 µM [inhibitor, partial curve] |
| CC(=O)c1c(C)[nH]c(C(=O)Nc2ccc(C)c(S(=O)(=O)N(C)C)c2)c1C | inactive |
| CCOC(=O)CNC(=O)Nc1nnc(-c2ccc(OCC)cc2)o1 | inconclusive: 20 µM [inhibitor, partial curve] |
| Cc1ccc(S(=O)(=O)Nc2ccccc2-c2ccccc2NS(=O)(=O)c2ccc(C)cc2)cc1 | inconclusive: 0.0251 µM [inhibitor, full curve, poor fit] |
| CC(=O)c1ccc(Oc2ccc(C(C)=O)cc2)cc1 | inconclusive: 2 µM [inhibitor, full curve] |
| CCCCOC(=O)n1c(SCC(=O)N(CC)CC)nc2ccccc21 | inconclusive: 17.8 µM [inhibitor, single point] |
| Cc1c(/N=C/c2ccco2)n(Cc2ccccc2)c2ccccc12 | inconclusive: 20 µM [inhibitor, partial curve] |
| O=C(NCc1cccnc1)/C(=C/c1ccc(-c2cccc(C(F)(F)F)c2)o1)NC(=O)c1ccccc1 | inconclusive: 35.5 µM [inhibitor, partial curve, poor fit] |
| CN1OC2C(=O)N(c3ccccc3)C(=O)C2C1c1ccc(F)cc1 (stereo not given) | inactive |
| c1ccc2c(c1)OCC(c1csc3ncnc(N4CCCC4)c13)O2 (stereo not given) | inactive |
| COc1ccc(-c2cc(C(F)(F)F)n3nc(C(=O)Nc4cc(C)on4)cc3n2)cc1OC | inconclusive: 3.55 µM [inhibitor, full curve] |
| Cc1ccc(OCc2ccc(C(=O)O)o2)c([N+](=O)[O-])c1 | inactive |
| Cc1ccc(S(=O)(=O)CCC(=O)O)cc1C | inactive |
| COc1ccc(C(CNC(=O)c2oc3ccc(Cl)cc3c2C)N2CCCCC2)cc1 (stereo not given) | inconclusive: 39.8 µM [inhibitor, single point] |
| O=[N+]([O-])c1cccc(Cl)c1NCCNS(=O)(=O)c1ccccc1 | inconclusive: 22.4 µM [inhibitor, partial curve] |
| CCn1c(O)c(N=NC(=O)CNc2ccc(C)cc2)c2ccccc21 | inconclusive: 22.4 µM [inhibitor, partial curve] |

| Compound | Potency |
| --- | --- |
| COc1ccc(-c2nn(-c3ccccc3)cc2/C=N/Nc2ccc3ccccc3n2)cc1OC | inconclusive: 10 µM [inhibitor, partial curve] |
| COc1cccc(N2CCN(C(=O)c3ccc(Cn4c(=O)[nH]c5cc(OC)c(OC)cc5c4=O)cc3)CC2)c1 | inconclusive: 14.1 µM [inhibitor, single point] |
| COc1cc2c(cc1OC)/C(=C/c1ccc(Cl)cc1)C(=O)OC2 | inconclusive: 15.8 µM [inhibitor, partial curve] |
| Cc1c(O)ccc(NC(=O)/C=C/c2ccccc2)c1C | inconclusive: 11.2 µM [inhibitor, partial curve] |
| c1cncc(-c2nc(-c3ccc4c(c3)OCO4)cs2)c1 | inconclusive: 6.31 µM [inhibitor, partial curve, poor fit] |
| Cc1ccc(CNC(=O)CCS(=O)(=O)c2cc(Br)cc3c2N(C(=O)C2CC2)CC3)o1 | inactive |
| Cn1c(-c2ccc3c(c2)OCO3)cnc1NCc1cccc(O)c1 | inconclusive: 8.91 µM [inhibitor, partial curve] |
| Cc1cc(C)c2c(CC(=O)N3CCN(c4cccc(Cl)c4)CC3)coc2c1 | inconclusive: 15.8 µM [inhibitor, single point] |
| Cc1nc2ccccc2c(=O)n1NCc1cccs1 | inactive |
| NS(=O)(=O)c1ccc(CCNC(=S)NC2CCCCC2)cc1 | inactive |
| Nc1ncnc2[nH]c(=O)[nH]c12 | inactive |
| O=C(c1ccc2c(c1)N(Cc1ccc(Cl)cc1)C(=O)c1ccccc1S2=O)N1CCOCC1 (stereo not given) | inactive |
| C[C@@H]1C(c2cccc(Cl)c2)=NN(c2ccccc2)[C@H]1C(=O)N1CCOC1=O | inactive |
| CCOC(=O)C1=C(C)NC(=O)NC1c1ccc(OCC(=O)Nc2ccccc2)c(OC)c1 (stereo not given) | inactive |
| CCc1nc(-c2cc3ccc(C)cc3[nH]c2=O)no1 | inconclusive: 2.82 µM [inhibitor, partial curve] |
| CC(NC(=O)CNC(=O)C(Cc1ccccc1)NC(=O)OCc1ccccc1)C(N)=O (stereo not given) | inactive |
| CN(C)c1ccc(NC(=O)CSc2nc(N)c(C(=O)Nc3ccc(N(C)C)cc3)s2)cc1 | active: 2.51 µM |
| CNc1oc(-c2ccccc2Cl)nc1P(=O)(c1ccccc1)c1ccccc1 | inconclusive: 28.2 µM [inhibitor, partial curve, poor fit] |
| CCCCN(C)C(=O)c1ccc(S(=O)(=O)N2CCOCC2)cc1 | inactive |
| Nc1ccc(C(=O)OCCCc2nc3cc4ccccc4cc3[nH]2)cc1 | inconclusive: 14.1 µM [inhibitor, partial curve] |
| COc1ccc(-n2cc(C(=O)NCc3ccccc3)c3ccccc3c2=O)cc1 | inconclusive: 22.4 µM [inhibitor, single point] |
| CC(C)(C)C(=O)/C(=C\c1ccc([N+](=O)[O-])cc1)n1cncn1 | inconclusive: 14.1 µM [inhibitor, partial curve] |
